From the supplement of paper PMC11417369
Some of the results follow.

System: PfSIP2 AP2 domain 1 (GST-tagged)
Experiment: gcPBM binding intensity (ln(normalized median fluorescence intensity)); higher = stronger DNA binding
Summary of the method: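 Using an Agilent 4 × 180k array, primer-extended double-stranded 36-bp intergenic genomic probes and negative controls were exposed for 1 h to GST-fused P. falciparum DNA-binding domains expressed in E. coli. Binding was carried out in 1× PBS with 1% milk, 0.2 mg/ml BSA, 0.5% salmon testes DNA and 0.03% Triton X-100, and protein was detected with Alexa488 anti-GST antibody and a 488 nm scan. Binding intensity is the highest Masliner-normalised natural-log median intensity across replicate spots of either probe orientation.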

| Sequence | gcPBM binding intensity (ln) |
| --- | --- |
| TAATTTCCTTAAGAATGTACTTACATTTTATTATTT [XGTACX_site5998] | 6.72 |
| ATGGACAAGTTAAACGCACACAAATATATACAGACA [CACACA_site1652] | 7.38 |
| TAATATGAAATGTGTACACACGCACCCACAAAAAAA [CACACA_site8949] | 10.7 |
| GTTTATGTATTATTATGTACGTATCATAATATATAT [XGTACX_site2385] | 7.51 |
| ACTTTATTTTCCTGTACACACATTTGACATATTAAA [CACACA_site3378] | 8.2 |
| CACCAAACTAAATGTACACACATACATAAATATAAA [CACACA_site4765] | 7.47 |
| AAAAACAAAAAAAAAACACACAATTCTAGTTATTTT [CACACA_site2767] | 6.68 |
| TTTTTTTTCCTAATGTGTACTAAAAATGAACAATAA [XGTACX_site5248] | 7.25 |
| TTTTTTATTTTATTTTATTTTTATTTTTTTTTTTTT [GTGCAC_negctrl_site596] | 6.94 |
| AACATTATTTTGTGTACACATTCGGTTATATTATAT [CACACA_site5628] | 7.31 |
| ATATTTTTTTCATAGACACACACAATATATCTGTTT [CACACA_site8993] | 7.18 |
| AAAAAAAAGAAACACACACACATACACATAAATATA [CACACA_site3807] | 6.98 |
| TAAACATAAATATGCACACATATACAGATATTCATA [CACACA_site5471] | 7.04 |
| TTTTACTTAAGACACACACACACAAAAAAAAAAAAA [CACACA_site6573] | 7.39 |
| ATAAAATACATATAAACACACATATAAACCGACATA [CACACA_site2477] | 7.09 |
| AGTTTTTACTCTAATGGTACAGTGCAACTAATAAAT [XGTACX_site6950] | 8.48 |
| TTTATGTAAAAATATAGTACATATTAAAAGATAAGA [XGTACX_site8134] | 6.79 |
| ATATATTCCATAAAGGTGCTGTTAACGTGTCAACGT [GTGCAC_site9402] | 7.84 |
| TAAGTATACACATACACACACACACTAAAAAAAAAA [CACACA_site6337] | 7.11 |

| Sequence | gcPBM binding intensity (ln) |
| --- | --- |
| TATTTTCCCTCCATATGTACTTAATTATAAGCACAT [XGTACX_site4000] | 7.13 |
| TATATATCGCATAAAACACACAAAAAAAAAATTAAA [CACACA_site7767] | 7.07 |
| AAAAAAAAAATATACACACACACATACACATAAATA [CACACA_site3808] | 7.03 |
| ATATATATCTTTTGTGTGCACATATATATAATATAT | 9.23 |
| TTATATTCTATTTATTGTACTTAAATATATATATAT [XGTACX_site6400] | 8.96 |
| AAACGAAAAAAATGGTGTACATTAAAATGAAAATTG [XGTACX_site7040] | 6.96 |
| TCTATCTTTTCCAAACGTACATTTTTTATATAAATT [XGTACX_site5352] | 7.26 |
| ATTTCATTTATAAGGATATCTACTTTTTATTTTAAT [GTGCAC_negctrl_site59] | 6.79 |
| GTGCCATTTAAAAAATGTACAAGAAAATGTTCATCA [XGTACX_site2865] | 7.05 |
| TGGTATTGAATTTTTTGTACACATAAAATATATATA [XGTACX_site7614] | 7.29 |
| TATTTTAATTTTTTTTTGTTTTTTCTAATACATGTA [CACACA_negctrl_site1399] | 6.67 |
| TTTTTTTTGGTATAATGTACATTTTCACTTATGTAT [XGTACX_site3259] | 6.98 |
| ATTTTATTTTCTCACACACACATATATATATATATA [CACACA_site5781] | 9.68 |
| ACATATGTTAAAAAGGCATGCATTCTTTTTATTTTA [TGCATGCA_site1043] | 6.98 |
| ACCAAAAAAAAAAAAAAAAAAATATACATATATATA [GTGCAC_negctrl_site582] | 7.26 |
| ACGTGATAAATAAATACATGCATAGAAAGATGCATA [TGCATGCA_site91] | 7.1 |
| TATATATATATATATTGTACTAGTGCATATATATAC [XGTACX_site7926] | 8.89 |
| TTTAAATATTTTAATACACACACGATATGTACAAAA [CACACA_site4455] | 7.11 |
| TACAATGAAAAAATAACATGCAATTATATTTCTCTT [TGCATGCA_site833] | 7.05 |

| Sequence | gcPBM binding intensity (ln) |
| --- | --- |
| ATAACATATTTCTTTTGTACTCAAAATAAAATTAAT [XGTACX_site2479] | 7.04 |
| AATTTTGTTGAGCACACACACATACATACATACATA [CACACA_site3154] | 7.18 |
| AAATATATTTTATTTTGTACTTATGTATAAAATATA [XGTACX_site914] | 6.85 |
| ATTCAAAAGATGTATACACACATGTGTATAATATAA [CACACA_site7197] | 7 |
| AATAATATATATATAATACACACTATTATAATCACA [CACACA_site1310] | 7.1 |
| AATAATAAAAAATATACACACATATATATATATATA [CACACA_site25] | 9.28 |
| AAAAAAAAAAAAAAATGTACATATGGTATGCATATA [XGTACX_site3225] | 7.2 |
| GCTTATAAAGGCAGAAGTACTGTATTCCTATATATA [XGTACX_site8865] | 7.06 |
| TTGGCATACGGACACACACACACACCCAGACATATA [CACACA_site4492] | 7.16 |
| TTATACAAATTCATGGGTACAAACAAACATATATCA [XGTACX_site6237] | 7.03 |
| TATACCTATAAATACACACACATATAAATAAATATA [CACACA_site6153] | 7.2 |
| AAAATATATACTCCATCACACACCAAAAAGAAAAAA [CACACA_site2542] | 7.15 |
| ATACATAAATACAAACGTACATACATACATACATAC [XGTACX_site7824] | 8.32 |
| CAGCTCTTAAGAATTACACACATATACACATATATA [CACACA_site7524] | 6.98 |
| GCAACACAAAAAATTACACACAAAAAAAATATATTA [CACACA_site916] | 7.04 |
| GAAGAAAAAAAATATACACACATACGATCATACATA [CACACA_site5227] | 6.84 |
| ATTCTACGCACGCGCACACACAACAAAAAAAAAAAA [CACACA_site3538] | 8.11 |
| GTGATGGTACAATATACACACTTAAAAAAAAAAAAT [CACACA_site5360] | 7.17 |
| CATGTGTGATAATGATGTACTATATTAAGCTAGTCC [XGTACX_site2690] | 6.91 |
